± gives the standard deviation of the averaged measurements. The list shows a part of the results.
Each sequence was assayed on PfAP2-LT AP2 domain (GST-tagged) (assay: gcPBM binding intensity (ln(normalized median fluorescence intensity)); higher = stronger DNA binding).
How it was run: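 An Agilent 4 × 180k array carrying primer-extended double-stranded 36-bp intergenic genomic probes and negative controls received GST-tagged P. falciparum DNA-binding domains expressed in E. coli, about 25 μg on average, for 1 h. The binding buffer contained 1× PBS, 1% milk, 0.2 mg/ml BSA, 0.5% salmon testes DNA and 0.03% Triton X-100. Binding intensity is the top Masliner-normalised natural-log median intensity across replicate spots of either probe orientation, read after Alexa488 anti-GST antibody staining and a 488 nm scan.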

Row | Sequence | gcPBM binding intensity (ln)
1 | TTATTTTCTTTCTATGCACACGCACGTATTTGCCCA [CACACA_site9104] | 9.14 ± 0.49
2 | TGCTTCATAAATAAAACATGCAATATAGAAATTAAA [TGCATGCA_site690] | 8.39 ± 0.41
3 | AAATATATATACCACACACACATACCTCTATTTGTA [CACACA_site1854] | 9.7 ± 0.18
4 | AGAGTAGGAAATGGAAAAATAAAATAAATAAATAAA [XGTACX_negctrl_site69] | 8.67 ± 0.68
5 | AATCCTTTAAAACACACACACAAAAAAAAAAAAAAA [CACACA_site642] | 9.28 ± 0.52
6 | TTTAACGTTGAATATACACACATATATTTATTTATA [CACACA_site7695] | 8.82 ± 0.42
7 | AAAATGTACTTTTTCTAAAGAGTAATGATGCTTGAT [CACACA_negctrl_site1124] | 8.55 ± 0.38
8 | GGGAGGATAGTTCACAGTACCCAGGAAATCTACGGA [XGTACX_site2553] | 8.81 ± 0.6
9 | GGTTCATAATATGGTTGTACATAAATATATATATAT [XGTACX_site7583] | 9.04 ± 0.3
10 | ATATATATGTATAATCGTACAGTTAACGTATTCTTA [XGTACX_site5649] | 8.98 ± 0.34
11 | AAACAGATAAATAAAAGTACACATTAAAAGGTAGCA [XGTACX_site4150] | 9.04 ± 0.64
12 | GGATTTTAATGAACACGTACATAAAATTAAATAAAT [XGTACX_site7023] | 8.73 ± 0.45
13 | TAATTAATTTCTTTACGTACATAATTAATATATATA [XGTACX_site7372] | 8.53 ± 0.43
14 | CTTTGCCTTAAAAAGGAACACACATGCTTTTTTTAG [CACACA_site8219] | 8.72 ± 0.42
15 | TACTATATCATTTATTGTACAATATTTCTTCAGAAA [XGTACX_site1008] | 8.62 ± 0.45
16 | TATAAAAGACTAAATATTATAGAAATATAAATATAA [TGCATGCA_negctrl_site237] | 8.44 ± 0.59
17 | TAACAAGGTTTATATGCATGCAAACATAACCAAAAA [TGCATGCA_site824] | 8.85 ± 0.39
18 | AATGGGTAAACATACACACACACATCTATATTTATA [CACACA_site7025] | 9.78 ± 0.4
19 | CATGAGGTATAAAAGGTGCAAATTAATGAGAACATT | 9.04 ± 0.57
20 | TTATATCAAGGGAATGCATGCATATCGTTTTGTATT [TGCATGCA_site327] | 9.05 ± 0.3
21 | AATAATATACATATATATATTATATTGTAATTTTGT [TGCATGCA_negctrl_site1] | 8.64 ± 0.4
22 | ACTAGACAAAATATAATGCACACTATTATTTTTATT [CACACA_site2726] | 8.88 ± 0.42
23 | TTGCATTGATCAAACATACACACATGGTTAATAAAA [CACACA_site2084] | 8.84 ± 0.41

Row | Sequence | gcPBM binding intensity (ln)
24 | TATTCTTATATATATACACACACAAAATATCTACAA [CACACA_site8144] | 9.11 ± 0.38
25 | TATTTCTCACTGTATGGTACAGATATAAATTTTTAT [XGTACX_site8776] | 8.62 ± 0.32
26 | TATATATATATATATGTGCGCATATATTTTTTTGTA [GTGCAC_site9983] | 9.96 ± 0.18
27 | ACAAAATTTACAAAATGTACAAAATATACAAAATAT [XGTACX_site6465] | 8.88 ± 0.5
28 | CACAAATAAATATTCACACATATATGTCTTATATAT [CACACA_site5323] | 9.05 ± 0.45
29 | ATCAAATTTTTGTTATGTACACAATCATTTAATAAA [XGTACX_site810] | 8.53 ± 0.38
30 | ATTACAATAAATTCGTGTACATGATACCGCCGCTAC [XGTACX_site8997] | 9.05 ± 0.4
31 | TAATTATTATTAAATACACACACATACCTCCATGTT [CACACA_site9134] | 9.51 ± 0.39
32 | AAAAAAAAAAAATAGGTGCGTGTTACTTTTGTATGC [GTGCAC_site9524] | 8.8 ± 0.33
33 | TAAATACATAGATGTACACACATTACAGATGTACAT [CACACA_site4692] | 9.1 ± 0.37
34 | ATTTATAAAATTAATGCACACATCAGCATTTATAAA [CACACA_site1025] | 8.7 ± 0.35
35 | ATAAAGCACACCGACACACACATATTTATATTTATA [CACACA_site6620] | 9.68 ± 0.43
36 | TTGTGTTATCCTTTTTTAGATCAACTATTTTTATTC [CACACA_negctrl_site145] | 8.78 ± 0.5
37 | TATAAAATAAAAAATAAATATCTATATATATATATA [TGCATGCA_negctrl_site351] | 8.97 ± 0.14
38 | AAAGGAAAATTAAAAAGTACACATTTGAAAAAAAAA [XGTACX_site2724] | 8.6 ± 0.78
39 | ATAATTTGTAAAAGGAGTACAAAACCATACTTTTTT [XGTACX_site6076] | 8.68 ± 0.23
40 | ATGTATTTAATAAGAACACACATATATTTAATTTAA [CACACA_site5606] | 8.77 ± 0.51
41 | TTTTTTTTTTTAAGTTCACACATAAATTCGATTTAC [CACACA_site5057] | 8.61 ± 0.47
42 | ACCGTTTTTGTGTAATGTACAAAATTTCTGACAGTG [XGTACX_site4999] | 8.78 ± 0.4
43 | ATAAGAAATGTAACTTGTACATAAGGATATATATTT [XGTACX_site236] | 8.92 ± 0.45
44 | CATTTATATAAATACACACACACAAAAAAAAAAAAA [CACACA_site5459] | 9.38 ± 0.28
45 | TAATAATAAAAAAATAGTACATAAATAAAAATAATA [XGTACX_site4774] | 8.81 ± 0.51
46 | TTTATACATTTATATTGTACTAATTCGATTTTATAT [XGTACX_site5424] | 8.88 ± 0.47

Row | Sequence | gcPBM binding intensity (ln)
47 | AAAGAAAAAGAAAAAGAAAAATTAGAATATAAAATA [CACACA_negctrl_site792] | 8.27 ± 0.69
48 | AATGATCATATATACACACACACAAAAAAAAAAAAA [CACACA_site4009] | 9.6 ± 0.45
49 | ATATACTATATATAATGTACATATATATTATTATGC [XGTACX_site2957] | 8.96 ± 0.35
50 | ATAAGAAAATCAAAAAGTACTTTTTACAAAGATAAA [XGTACX_site824] | 8.52 ± 0.57
51 | TAGTTTTTTATATATTGTACAAATAATATATTATAT [XGTACX_site2564] | 8.71 ± 0.35
52 | ATTTTATGATATATTTGTACTTAACATTTGGATATA [XGTACX_site5888] | 8.77 ± 0.41
53 | AGTGACACCAAAGGGGTGCAATGAAATTAAAAATAT | 8.92 ± 0.58
54 | TTTATTCATTTCTAAAAATATTAAAATAGAATGAAT [CACACA_negctrl_site325] | 8.1 ± 0.26
55 | AAACAAAAAATATATACACACTAAACATAAAAAAAA [CACACA_site4185] | 9.02 ± 0.46
56 | TAAAAAAAAATAAATGGTACACAATTAAATGTTTAT [XGTACX_site5255] | 8.69 ± 0.47
57 | AAAAAAATATATATATATATATATATATATTTATAT [XGTACX_negctrl_site86] | 9.23 ± 0.085
58 | GTAATTATTAATAAAACATGCGTATAAAATTTTCTC [TGCATGCA_site50] | 8.62 ± 0.46
59 | TAAATTCTTTAAAACTTTAAAACAAAAAAAAAAAAA [CACACA_negctrl_site1078] | 7.96 ± 0.38
60 | TCTTTTTTTAATAAAACATGCAATATTATATATGTA [TGCATGCA_site236] | 8.42 ± 0.48
61 | AATTTTAGATTTAGCACACATTTTTTTTTTTTTTTT [CACACA_site6105] | 8.75 ± 0.54
62 | TTTTTAATCTCATATGTATAATATATTTTTATTAAA [XGTACX_negctrl_site236] | 8.15 ± 0.43
63 | TTCAAAGGGAAATTAACACACACATATATATATATA [CACACA_site8777] | 9.71 ± 0.2
64 | TTCAATGCTAATTTATGTACATATGTATATAAAATA [XGTACX_site8335] | 8.46 ± 0.35
65 | AAAATATATATTTGTTGTACAATATTAATTATTAAA [XGTACX_site1612] | 8.49 ± 0.41
66 | TTTATATAAATTTAAGTGCAAAATGAACAAGTGAAA | 8.69 ± 0.41
67 | CCCAAAAAAAATTTATGTACTTATTAAATATATATA [XGTACX_site6455] | 8.51 ± 0.26
68 | TGCAAAGGTGAAAGAACACACAAAAAAAAAAAAAAA [CACACA_site4024] | 8.88 ± 0.54
69 | CACCATGTTAACAAAGCATGCATCTCTATAGTTTTA [TGCATGCA_site97] | 8.81 ± 0.38

Row | Sequence | gcPBM binding intensity (ln)
70 | AAAAAAAAAAAAAGAACATGCGACTTTAAGAACTGG [TGCATGCA_site792] | 8.62 ± 0.46
71 | TAAAAAATTATATATTGTACGAATGCATAAAAAAAA [XGTACX_site4606] | 8.69 ± 0.44
72 | CAAATGTGTTCTTCAGGTACAGATACACATTTATGA [XGTACX_site2664] | 8.73 ± 0.37
73 | TATGAAAATAAAATATGTACATATTTTAAATGTTAT [XGTACX_site7352] | 8.69 ± 0.47
74 | CCCTCCCCATGTTTAGTGCAAAAATATTTGAAATTG [GTGCAC_site9873] | 10.1 ± 0.057
75 | TGAATAAATATATATACACACATATCTGTATTTATT [CACACA_site4991] | 8.98 ± 0.36
76 | TATATATATACCAACACACATACATATATATATATA [CACACA_site1795] | 9.49 ± 0.22
77 | AAATTTGGCAGACACACACACACACGCACACGCACA [CACACA_site6423] | 10.4 ± 0.33
78 | TATGAAATTAGAATTACACACAGGAAAATAAAATGC [CACACA_site6822] | 9.16 ± 0.47
79 | AAAAAAAATCAAATGGGTACTTATTCTTAATAATAT [XGTACX_site3792] | 8.61 ± 0.33
80 | TTTGCGTAGAAATGTGTGCACTGATATTTATAATAA [GTGCAC_site9526] | 9.03 ± 0.43
81 | TGAACTCATAGGAAAACACACATATGGGTAATATAT [CACACA_site187] | 9.09 ± 0.37
82 | ATTTTCCTTTTACCACGTACACATAAAAACGTTATA [XGTACX_site3595] | 8.85 ± 0.41
83 | ATCATAAATATAGCAACACACGGATTACATAAAATA [CACACA_site2796] | 9.04 ± 0.5
84 | TTGTAATAAATAAAAGTGCAGATATGGTTCCACTAA [GTGCAC_site9942] | 8.59 ± 0.48
85 | TTAAAAAAATAATTAACACACACATGTATATCTATA [CACACA_site9026] | 9.03 ± 0.43
86 | ACATATTCATATGGAAGTACGATAATGTAGTCATAT [XGTACX_site7080] | 8.96 ± 0.39
87 | ATATATACATACAAATTAATTACGAGGAATATATTA [XGTACX_negctrl_site417] | 8.79 ± 0.37
88 | AATGAACTCACGAGCACACACACACCGATATATATA [CACACA_site4710] | 10.1 ± 0.35
89 | TATATATATTTAAAGGTGCAGATGCCAGTGTATATT | 8.85 ± 0.41

From the supplement of paper PMC11417369
